Results taken from ChEMBL document CHEMBL4888484, “Replenishing the malaria drug discovery pipeline: Screening and hit evaluation of the MMV Hit Generation Library 1 (HGL1) against asexual blood stage Plasmodium falciparum ,using a nano luciferase reporter read-out” (2022).
Values joined by “and” are separate entries in the source; they are usually repeats but may differ in a detail not shown here. Identical values can stand only once. In all, about 150,000 compounds went through this assay and about 540 (0.36%) showed an effect of 50% or more. Some of the results follow.

Tested on: Plasmodium falciparum
Experiment: Primary screen in NF54 nanoGlo assay, in single point, at 2uM, 72h; a lower Z score goes with more inhibition
Assay type: functional, Erythrocyte
Conditions: timepoint 72 hour

Compound	% Inhibition [%]	Z score	% Inhibition (2 µM)	Z score (2 µM)
c1cc(CNC2CC3CCC2C3)ccn1 (stereo unspecified)	-13	2.45	–	–
C[C@H](NC(=O)c1ccc2c(c1)CCCC2=O)c1cncs1	-17	1.69	–	–
Cn1cncc1CCNC(=O)C1CCC(F)(F)CC1	-1	0.19	–	–
CCn1cc(S(=O)(=O)N2CC(n3cnnc3-c3ccccc3)C2)cn1	-6	0.86	–	–
COc1cccc(C2=Nc3cccnc3N(CC(=O)Nc3ccc(C(F)(F)F)cc3)C(=O)C2)c1	28	-3.2	–	–
O=S(=O)(CC1CCCC1(F)F)NC[C@H]1CCC[C@@H]1O (stereo partly specified)	-14	2.63	–	–
O=C(O)[C@@H](c1ccccc1)n1sc2ccccc2c1=O	–	–	-5% and -8%	0.8 and 1.51
COc1cccn(CC(=O)N2CC(OCc3ccccc3C)C2)c1=O	-1	0.23	–	–
COC(=O)c1cc2ccccc2c(CN2CCCc3cc(F)ccc32)c1O	8	-1.41	–	–
C[C@H]1CCc2[nH]c(=O)c(C(=O)N3CCOCC3)cc2C1	0	0.04	–	–
CC(=O)N[C@H]1CN(c2nccc(N3CCC(O)CC3)n2)C[C@@H]1C1CC1	-2	0.39	–	–
Cc1cc(C)n(CCCNCc2c(Cl)cccc2Cl)n1	-15	1.53	–	–
O=C(Nc1cccc2cccnc12)c1cscn1	9	-1.21	–	–
C[C@H](Oc1ccc(Cl)cc1)C(=O)N1CCC(NS(=O)(=O)c2cccs2)CC1	2	-0.22	–	–
Cc1nc(-c2cc(S(=O)(=O)N3CCCCCC3)cn2C)sc1C(=O)N1CCOCC1	-14	2.44	–	–
CN(C(=O)c1ccccc1-n1cnnn1)[C@H]1CCCN(Cc2ccccc2)C1	-1	0.13	–	–
CC(C)c1cc(C(=O)N[C@@H](Cn2ccnc2)C(C)C)nc2ncnn12	-5	0.96	–	–
Cc1ccn2c(NC(=O)COc3ccccc3)c(-c3cccc(F)c3)nc2c1	-17	3.3	–	–
O=C(c1ccc(NCCn2ccnc2)cc1)N1CC[C@@H]2CCC[C@@H]21	-6	1.22	–	–
COC(=O)Nc1sc2c(c1C#N)CC[C@H](c1ccccc1)C2	6	-0.98	–	–
CNc1cc(C(=O)N[C@H]2CC[C@@H]3CCC[C@@H]32)ccn1	9	-1.2	–	–

Compound	% Inhibition [%]	Z score	% Inhibition (2 µM)	Z score (2 µM)
CCCn1ccnc1CN[C@H]1CCOC2(CCOCC2)C1	-11	1.33	–	–
Cc1c[nH]c(-c2c(-c3ccccc3)ncn2CCNc2cccnc2)n1	-13	2.28	–	–
C[C@H](Nc1ncc(C(F)(F)F)cc1Cl)c1cc(F)ccc1N1CCC(O)CC1	-12	1.52	–	–
Cc1ccc(C(=O)N2c3cc(C)ccc3[C@](C)(c3ccccc3)CC2(C)C)cc1	-5	0.61	–	–
CC1=NS(=O)(=O)c2cccnc2N1c1ccccc1F	-8	0.81	–	–
O=C(CCOc1ccccc1)N(Cc1nccs1)C1CC1	-7	1.16	–	–
Cn1cc(CCC(=O)NC(c2ccccn2)[C@H]2C[C@H](O)C2)cn1 (stereo partly specified)	-7	1	–	–
CC(=O)N1CCC(CCC(=O)N2C[C@@H](C(C)C)Nc3ccccc32)CC1	-14	1.6	–	–
O=S1(=O)CCCN1Cc1coc(-c2cccc(Cl)c2)n1	-7	1.4	–	–
CN1CCn2ccnc2C12CCN(S(=O)(=O)c1ccccc1Cl)CC2	-17	2.27	–	–
c1cnc(N2CCC3CCCCC32)cn1 (stereo unspecified)	2	-0.23	–	–
Cc1noc(C)c1CC(=O)NC(Cc1ccccn1)[C@H]1C[C@@H](O)C1 (stereo partly specified)	-10	1.28	–	–
CN1C(=O)[C@@H]2CCCCN2c2ccc(C(=O)NCCN3CCCC3)cc21	1	-0.26	–	–
CCN(CC)c1onc(-c2ccccc2)c1CN(CC(C)C)C(=O)c1ccc2c(c1)OCO2	-3	0.5	–	–
OC1CN(Cc2ccns2)CCN(Cc2ccns2)C1	3	-0.38	–	–
Cc1cc(=O)n([C@@H](C)C(=O)N2CCOCC2)c2ccccc12	-7	0.8	–	–
CCO[C@@]1(C)C[C@H]1NC(=O)NC(c1ccccc1)C(F)F (stereo partly specified)	-3	0.46	–	–
Cc1nc(C(=O)N[C@H](c2ccncc2)C2CC2)c(=O)[nH]c1C	3	-0.37	–	–
CN(C)S(=O)(=O)N(C)CCOC(=O)c1cccc2ccccc12	-9	1.8	–	–
CCc1nccn1CCC(=O)N1C[C@@H]2CC[C@H]1CN(S(=O)(=O)N(C)C)C2	2	-0.48	–	–
CCOc1ccc(CNC(=O)c2ccc3c(c2)nc2n3CCCC2)cc1	-16	2.32	–	–

Compound	% Inhibition [%]	Z score	% Inhibition (2 µM)	Z score (2 µM)
O=C(CN(CC1CCCO1)C1CCN(CC(F)(F)F)C1)N1CCCC1 (stereo unspecified)	-14	1.56	–	–
CCN1C[C@@H](CNC(=O)N(C)Cc2nc3ccccc3c(=O)[nH]2)CC1=O	5	-0.64	–	–
CN1c2cccnc2CN(C(=O)Nc2ccccc2)CC[C@H]1CO	-14	2.09	–	–
O=S(=O)(c1cccnc1)N1CC[C@H](c2nc(C3CC3)no2)C1	-6	0.68	–	–
Cc1ccc(-c2nc(CC(N)=O)nn2C2CCCCC2)s1	-13	1.25	–	–
CO[C@H]1[C@H](NC(=O)COc2ccccc2)c2ccccc2C12CCN(C(=O)Cc1nc(C)n[nH]1)CC2	-11	1.34	–	–
C[C@@H](COc1ccccc1)NC(=O)CCNC(=O)OCC(F)(F)F	-2	0.27	–	–
COCC1(C(=O)NCCn2ccnn2)CCC1	1	-0.15	–	–
COC(=O)c1cc(S(=O)(=O)N(C)CC(=O)Nc2ccc3c(c2)OCCO3)cn1C	-4	0.71	–	–
CC(=O)Nc1nc(C(=O)NCCc2ccc3c(c2)OCCO3)cs1	0	0.06	–	–
O=C(c1ccncc1)N1CCC(F)(C(=O)NCC2CC2)CC1	-10	1.32	–	–
COc1ccccc1C1c2[nH]c3ccccc3c2C[C@H]2C(=O)N(C(C)C)CC(=O)N12 (stereo partly specified)	-8	1.17	–	–
COc1cccc(C(=O)NCC(=O)N2CCC([C@]3(C)NC(=O)NC3=O)CC2)c1	0	-0.04	–	–
c1ccc(C2OC(c3ccco3)N(c3ccccc3)C2c2ccccc2)cc1 (stereo unspecified)	-3	0.32	–	–
COc1ccc(CCc2nnc(CCC(=O)N3CCC[C@H](OC)C3)o2)cc1	8	-0.71	–	–
Cc1cc(C)cc(-c2ncnc(Oc3cccc(F)c3)c2N)c1	-4	0.67	–	–
Cn1nccc1-c1ccc(CNC(=O)Cn2nnc3ccccc32)cn1	-20	2.33	–	–
COc1cccc(-c2nnnn2[C@H]2CO[C@H]3[C@@H]2OC[C@@H]3NC(=O)COc2ccccc2)c1	8	-0.91	–	–
Cc1noc([C@H]2C[C@@H](O)CN2c2nc3ccccc3n2C)n1	-17	1.51	–	–
C[C@@H](CCc1nc(CC(N)=O)nn1-c1ccc(F)cc1)N1CCOCC1	-3	0.39	–	–
COc1ccc([C@@H]2c3[nH]c4ccccc4c3CCN2Cc2ccccc2F)cc1	-1	0.15	–	–

Compound	% Inhibition [%]	Z score	% Inhibition (2 µM)	Z score (2 µM)
N#Cc1ncn(CCCC(=O)N2CCCCC2)n1	-1	0.1	–	–
O=C(Nc1onc2c1CCC2)c1cccc2ccccc12	20	-2.27	–	–
COCCC(=O)NCCn1cc(-c2nc(-c3ccsc3)no2)nn1	-21	3.91	–	–
O=C(NCC1CCN(Cc2nc3ncccn3n2)CC1)c1cc(C2CC2)no1	-21	2.64	–	–
Fc1ccc(-c2nc([C@H]3CCOC3)no2)cc1COCC1CC1	2	-0.2	–	–
CCc1nc(C)c(C(=O)N(Cc2ccc(C)cc2)[C@@H](C)CC)o1	-10	1.17	–	–
CCNc1ccnc(N[C@H]2CCCC[C@@H]2O)n1	16	-2.01	–	–
CCOC(=O)c1nc([C@H](CC(C)C)NCc2ccc(F)c(C)c2)n[nH]1	-3	0.55	–	–
CC(C)c1ccc(-c2nc(N3CCCCC3)nc(O)c2C#N)cc1	-6	0.85	–	–
Cc1ccc(CNc2cnn(CC(=O)NCCN(C)C)c2)c(-c2ccnn2C)c1	-9	1.21	–	–
COc1ccc(C)cc1NC(=O)C(=O)NCCC(c1ccccc1)c1ccccc1	12	-2.23	–	–
CCCN(C(=O)c1ccc(F)cc1F)c1cccc(NC(=O)c2ccc(F)cc2F)c1	-12	1.25	–	–
O=C(Nc1nc(-c2ccccc2)nc2c1C(=O)CCC2)c1ccccc1	-18	2.3	–	–
COc1cccc([C@@H](C)NC(=O)c2cc(CN3CCC(O)CC3)on2)c1	-2	0.45	–	–
CC(C)[C@H]1CN(Cc2ccccc2Cn2cccn2)C[C@@H]1NC(=O)N(C)C	-11	1.13	–	–
CC(C)(C)c1cc(CS(=O)(=O)Nc2ccccc2OC(F)F)no1	4	-0.49	–	–
COc1ccc(NC(=O)c2cnc(N(C)C)nc2)cc1Cl	-4	0.65	–	–
Cc1cc(-c2noc(C3C[C@@H]4CC(=O)[C@H]3C4)n2)cc(C)c1Br (stereo partly specified)	-8	1.44	–	–
CN(CCN1CCCCC1=O)C(=O)c1ccc2c(c1)c1ccccc1n2C	3	-0.52	–	–
Cn1ccnc1C(NC(=O)N1CCCC(C)(C)C1)c1nccn1C	-34	3.95	–	–
